Results as given in the supplement of paper PMC8728848.
Some of the results follow.

Legend:
Test in all cases: glycan array binding signal (z-score within array); higher = stronger binding
Conditions in all cases: glycan notation: IUPAC condensed, linker removed
[1] = biological target: Gal(b1-2)Gal
In short: (§1)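 Glycan array data were curated from 3228 arrays in the Consortium for Functional Glycomics database and kept only where the protein sequence was available. Glycan names were converted to IUPAC-condensed notation, and columns mapping to the same glycan were averaged. The binding signal is a within-array Z-score, averaged across arrays of the same protein sequence at different concentrations or buffers and across linkers. Negative Z-scores can be read as non-binding.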

[2] = biological target: Gal(b1-3)Gal
In short: as §1

[3] = biological target: Gal(b1-3)Gal(b1-4)GlcNAc
In short: as §1

[4] = biological target: Gal(b1-3)GalNAc
In short: as §1

[5] = biological target: Gal(b1-3)GalNAc(b1-3)Gal(a1-4)Gal(b1-4)Glc
In short: as §1

[6] = biological target: Gal(b1-3)GalNAc(b1-4)Gal(b1-4)Glc
In short: as §1

[7] = biological target: Gal(b1-3)GalNAc(b1-4)[Neu5Ac(a2-3)]Gal(b1-4)Glc
In short: as §1

[8] = biological target: Gal(b1-3)GlcNAc
In short: as §1

[9] = biological target: Gal(b1-3)GlcNAc(b1-2)Man(a1-3)[Gal(b1-3)GlcNAc(b1-2)Man(a1-6)]Man(b1-4)GlcNAc(b1-4)GlcNAc
In short: as §1

[10] = biological target: Gal(b1-3)GlcNAc(b1-3)Gal(b1-3)GlcNAc
In short: as §1

[11] = biological target: Gal(b1-3)GlcNAc(b1-3)Gal(b1-4)Glc
In short: as §1

[12] = biological target: Gal(b1-3)GlcNAc(b1-3)Gal(b1-4)GlcNAc
In short: as §1

[13] = biological target: Gal(b1-3)[Fuc(a1-4)]GlcNAc
In short: as §1

[14] = biological target: Gal(b1-3)[Fuc(a1-4)]GlcNAc(b1-3)Gal(b1-3)[Fuc(a1-4)]GlcNAc
In short: as §1

[15] = biological target: Gal(b1-3)[Fuc(a1-4)]GlcNAc(b1-3)Gal(b1-4)GlcNAc
In short: as §1

[16] = biological target: Gal(b1-3)[Fuc(a1-4)]GlcNAc(b1-3)Gal(b1-4)[Fuc(a1-3)]GlcNAc
In short: as §1

[17] = biological target: Gal(b1-3)[GlcNAc(b1-6)]GalNAc
In short: as §1

[18] = biological target: Gal(b1-3)[Neu5Ac(a2-6)]GalNAc
In short: as §1

[19] = biological target: Gal(b1-3)[Neu5Ac(a2-6)]GlcNAc(b1-6)Gal(b1-4)Glc
In short: as §1

[20] = biological target: Gal(b1-3)[Neu5Ac(b2-6)]GalNAc
In short: as §1

[21] = biological target: Gal(b1-4)GalNAc(a1-3)[Fuc(a1-2)]Gal(b1-4)GlcNAc
In short: as §1

[22] = biological target: Gal(b1-4)GalNAc(b1-3)[Fuc(a1-2)]Gal(b1-4)GlcNAc
In short: as §1

[23] = biological target: Gal(b1-4)Glc
In short: as §1

[24] = biological target: Gal(b1-4)Glc6S
In short: as §1

[25] = biological target: Gal(b1-4)GlcNAc
In short: as §1

[26] = biological target: Gal(b1-4)GlcNAc(a1-6)Gal(b1-4)GlcNAc
In short: as §1

[27] = biological target: Gal(b1-4)GlcNAc(b1-2)Man(a1-3)[Gal(b1-4)GlcNAc(b1-2)Man(a1-6)]Man(b1-4)GlcNAc(b1-4)GlcNAc
In short: as §1

[28] = biological target: Gal(b1-4)GlcNAc(b1-3)Gal(b1-3)GlcNAc
In short: as §1

[29] = biological target: Gal(b1-4)GlcNAc(b1-3)Gal(b1-4)Glc
In short: as §1

[30] = biological target: Gal(b1-4)GlcNAc(b1-3)Gal(b1-4)GlcNAc
In short: as §1

[31] = biological target: Gal(b1-4)GlcNAc(b1-3)Gal(b1-4)GlcNAc(b1-3)Gal(b1-4)GlcNAc
In short: as §1

[32] = biological target: Gal(b1-4)GlcNAc(b1-3)Gal(b1-4)[Fuc(a1-3)]GlcNAc(b1-3)Gal(b1-4)[Fuc(a1-3)]GlcNAc
In short: as §1

[33] = biological target: Gal(b1-4)GlcNAc(b1-3)GalNAc
In short: as §1

[34] = biological target: Gal(b1-4)GlcNAc(b1-3)[Gal(b1-4)GlcNAc(b1-6)]Gal(b1-4)GlcNAc
In short: as §1

[35] = biological target: Gal(b1-4)GlcNAc(b1-3)[GlcNAc(b1-6)]Gal(b1-4)GlcNAc
In short: as §1

[36] = biological target: Gal(b1-4)GlcNAc(b1-6)Gal(b1-4)GlcNAc
In short: as §1

[37] = biological target: Gal(b1-4)GlcNAc(b1-6)Gal(b1-4)GlcNAc(b1-6)GalNAc
In short: as §1

[38] = biological target: Gal(b1-4)GlcNAc(b1-6)GalNAc
In short: as §1

[39] = biological target: Gal(b1-4)GlcNAc(b1-6)[Gal(b1-3)]GalNAc
In short: as §1

[40] = biological target: Gal3S(b1-3)GalNAc
In short: as §1

[41] = biological target: Gal3S(b1-3)GlcNAc
In short: as §1

[42] = biological target: Gal3S(b1-3)[Fuc(a1-4)]GlcNAc
In short: as §1

[43] = biological target: Gal3S(b1-4)Glc
In short: as §1

[44] = biological target: Gal3S(b1-4)Glc6S
In short: as §1

B1: CBM32-1 (Clostridium perfringens) (protein)
chain: MGSSHHHHHHSSGLVPRGSHMASGVEITEGVTVTAKGNTEGNTADLAIDGDLSTYWESSNDYKWIEVDLGGIYELSKIEIFNKDEAVYKYNIYASEDGENFNKIAYKNNDNVSDSNGNVHTIDNVRAGKIRIDVVQNSNSDRVNIAEINVFG
[1]
  glycan array binding signal (z-score): 0.823
[2]
  glycan array binding signal (z-score): -0.678
[3]
  glycan array binding signal (z-score): -0.945
[4]
  glycan array binding signal (z-score): -0.444
[5]
  glycan array binding signal (z-score): 0.817
[6]
  glycan array binding signal (z-score): -0.14
[7]
  glycan array binding signal (z-score): -0.651
[8]
  glycan array binding signal (z-score): -0.333
[9]
  glycan array binding signal (z-score): -0.483
[10]
  glycan array binding signal (z-score): -0.209
[11]
  glycan array binding signal (z-score): -0.662
[12]
  glycan array binding signal (z-score): -0.427
[13]
  glycan array binding signal (z-score): -0.22
[14]
  glycan array binding signal (z-score): -0.399
[15]
  glycan array binding signal (z-score): -0.163
[16]
  glycan array binding signal (z-score): -0.252
[17]
  glycan array binding signal (z-score): -0.458
[18]
  glycan array binding signal (z-score): -0.587
[19]
  glycan array binding signal (z-score): -0.836
[20]
  glycan array binding signal (z-score): -0.177
[21]
  glycan array binding signal (z-score): -0.671
[22]
  glycan array binding signal (z-score): 0.844
[23]
  glycan array binding signal (z-score): -0.18
[24]
  glycan array binding signal (z-score): -0.266
[25]
  glycan array binding signal (z-score): -0.775
[26]
  glycan array binding signal (z-score): -0.478
[27]
  glycan array binding signal (z-score): 0.131
[28]
  glycan array binding signal (z-score): -0.087
[29]
  glycan array binding signal (z-score): -0.585
[30]
  glycan array binding signal (z-score): -0.492
[31]
  glycan array binding signal (z-score): 0.889
[32]
  glycan array binding signal (z-score): -0.448
[33]
  glycan array binding signal (z-score): 0.629
[34]
  glycan array binding signal (z-score): -0.343
[35]
  glycan array binding signal (z-score): -0.268
[36]
  glycan array binding signal (z-score): -0.302
[37]
  glycan array binding signal (z-score): -0.419
[38]
  glycan array binding signal (z-score): -0.567
[39]
  glycan array binding signal (z-score): -0.263
[40]
  glycan array binding signal (z-score): -0.59
[41]
  glycan array binding signal (z-score): 0.183
[42]
  glycan array binding signal (z-score): -0.231
[43]
  glycan array binding signal (z-score): -0.075
[44]
  glycan array binding signal (z-score): 3.21
